{
  "source": "the supplement of paper PMC8728848",
  "assay_in_all_cases": "glycan array binding signal (z-score within array); higher = stronger binding",
  "conditions_in_all_cases": "glycan notation: IUPAC condensed, linker removed",
  "key": {"[1]": {"molecular_target": "Neu5Ac(a2-6)Gal(b1-4)GlcNAc(b1-3)Gal(b1-4)GlcNAc(b1-3)GalNAc", "procedure,_shortened": "(§1)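 Glycan array data were curated from 3228 arrays in the Consortium for Functional Glycomics database and kept only where the protein sequence was available. Glycan names were converted to IUPAC-condensed notation, and columns mapping to the same glycan were averaged. The binding signal is a within-array Z-score, averaged across arrays of the same protein sequence at different concentrations or buffers and across linkers. Negative Z-scores can be read as non-binding.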"}, "[2]": {"molecular_target": "Neu5Ac(a2-6)Gal(b1-4)GlcNAc(b1-3)Gal(b1-4)GlcNAc(b1-3)[Neu5Ac(a2-6)Gal(b1-4)GlcNAc(b1-3)Gal(b1-4)GlcNAc(b1-6)]GalNAc", "procedure,_shortened": "as §1"}, "[3]": {"molecular_target": "Neu5Ac(a2-6)Gal(b1-4)GlcNAc(b1-3)Gal(b1-4)GlcNAc(b1-6)[Gal(b1-3)]GalNAc", "procedure,_shortened": "as §1"}, "[4]": {"molecular_target": "Neu5Ac(a2-6)Gal(b1-4)GlcNAc(b1-3)Gal(b1-4)[Fuc(a1-3)]GlcNAc(b1-3)Gal(b1-4)[Fuc(a1-3)]GlcNAc", "procedure,_shortened": "as §1"}, "[5]": {"molecular_target": "Neu5Ac(a2-6)Gal(b1-4)GlcNAc(b1-3)GalNAc", "procedure,_shortened": "as §1"}, "[6]": {"molecular_target": "Neu5Ac(a2-6)Gal(b1-4)GlcNAc(b1-3)[Neu5Ac(a2-6)Gal(b1-4)GlcNAc(b1-6)]GalNAc", "procedure,_shortened": "as §1"}, "[7]": {"molecular_target": "Neu5Ac(a2-6)Gal(b1-4)GlcNAc(b1-6)GalNAc", "procedure,_shortened": "as §1"}, "[8]": {"molecular_target": "Neu5Ac(a2-6)Gal(b1-4)GlcNAc(b1-6)[Gal(b1-3)GlcNAc(b1-3)]Gal(b1-4)Glc", "procedure,_shortened": "as §1"}, "[9]": {"molecular_target": "Neu5Ac(a2-6)Gal(b1-4)GlcNAc(b1-6)[Gal(b1-3)]GalNAc", "procedure,_shortened": "as §1"}, "[10]": {"molecular_target": "Neu5Ac(a2-6)Gal(b1-4)GlcNAc6S", "procedure,_shortened": "as §1"}, "Neu5Ac(a2-6)GalNAc": {"molecular_target": "Neu5Ac(a2-6)GalNAc", "procedure,_shortened": "as §1"}, "[11]": {"molecular_target": "Neu5Ac(a2-6)GalNAc(b1-4)GlcNAc", "procedure,_shortened": "as §1"}, "[12]": {"molecular_target": "Neu5Ac(a2-6)GalNAc(b1-4)GlcNAc6S", "procedure,_shortened": "as §1"}, "[13]": {"molecular_target": "Neu5Ac(a2-6)GlcNAc(b1-4)GlcNAc", "procedure,_shortened": "as §1"}, "[14]": {"molecular_target": "Neu5Ac(a2-6)GlcNAc(b1-4)GlcNAc(b1-4)GlcNAc", "procedure,_shortened": "as §1"}, "Neu5Ac(a2-8)Neu5Ac": {"molecular_target": "Neu5Ac(a2-8)Neu5Ac", "procedure,_shortened": "as §1"}, "[15]": {"molecular_target": "Neu5Ac(a2-8)Neu5Ac(a2-3)Gal(b1-3)GalNAc(b1-4)[Neu5Ac(a2-3)]Gal(b1-4)Glc", "procedure,_shortened": "as §1"}, "[16]": {"molecular_target": "Neu5Ac(a2-8)Neu5Ac(a2-3)Gal(b1-3)GalNAc(b1-4)[Neu5Ac(a2-8)Neu5Ac(a2-3)]Gal(b1-4)Glc", "procedure,_shortened": "as §1"}, "[17]": {"molecular_target": "Neu5Ac(a2-8)Neu5Ac(a2-3)Gal(b1-4)Glc", "procedure,_shortened": "as §1"}, "[18]": {"molecular_target": "Neu5Ac(a2-8)Neu5Ac(a2-3)Gal(b1-4)GlcNAc", "procedure,_shortened": "as §1"}, "[19]": {"molecular_target": "Neu5Ac(a2-8)Neu5Ac(a2-3)[Gal(b1-3)GalNAc(b1-4)]Gal(b1-4)Glc", "procedure,_shortened": "as §1"}, "[20]": {"molecular_target": "Neu5Ac(a2-8)Neu5Ac(a2-3)[GalNAc(b1-4)]Gal(b1-4)Glc", "procedure,_shortened": "as §1"}, "[21]": {"molecular_target": "Neu5Ac(a2-8)Neu5Ac(a2-8)Neu5Ac", "procedure,_shortened": "as §1"}, "[22]": {"molecular_target": "Neu5Ac(a2-8)Neu5Ac(a2-8)Neu5Ac(a2-3)Gal(b1-4)Glc", "procedure,_shortened": "as §1"}, "[23]": {"molecular_target": "Neu5Ac(a2-8)Neu5Ac(a2-8)Neu5Ac(a2-3)[Gal(b1-3)GalNAc(b1-4)]Gal(b1-4)Glc", "procedure,_shortened": "as §1"}, "[24]": {"molecular_target": "Neu5Ac(a2-8)Neu5Ac(a2-8)Neu5Ac(a2-3)[GalNAc(b1-4)]Gal(b1-4)Glc", "procedure,_shortened": "as §1"}, "[25]": {"molecular_target": "Neu5Ac(a2-8)Neu5Ac(a2-8)Neu5Ac(a2-8)Neu5Ac(a2-3)[GalNAc(b1-4)]Gal(b1-4)Glc", "procedure,_shortened": "as §1"}, "[26]": {"molecular_target": "Neu5Ac(a2-8)Neu5Gc(a2-3)Gal(b1-4)GlcNAc", "procedure,_shortened": "as §1"}, "[27]": {"molecular_target": "Neu5Ac(b2-6)Gal(b1-4)GlcNAc", "procedure,_shortened": "as §1"}, "Neu5Ac(b2-6)GalNAc": {"molecular_target": "Neu5Ac(b2-6)GalNAc", "procedure,_shortened": "as §1"}, "[28]": {"molecular_target": "Neu5Ac9Ac(a2-3)Gal(b1-3)GlcNAc", "procedure,_shortened": "as §1"}, "[29]": {"molecular_target": "Neu5Ac9Ac(a2-3)Gal(b1-4)GlcNAc", "procedure,_shortened": "as §1"}, "[30]": {"molecular_target": "Neu5Ac9Ac(a2-6)Gal(b1-4)GlcNAc", "procedure,_shortened": "as §1"}, "[31]": {"molecular_target": "Neu5Gc(a2-3)Gal(b1-3)GlcNAc", "procedure,_shortened": "as §1"}, "[32]": {"molecular_target": "Neu5Gc(a2-3)Gal(b1-3)[Fuc(a1-4)]GlcNAc", "procedure,_shortened": "as §1"}, "Neu5Gc(a2-3)Gal(b1-4)Glc": {"molecular_target": "Neu5Gc(a2-3)Gal(b1-4)Glc", "procedure,_shortened": "as §1"}, "[33]": {"molecular_target": "Neu5Gc(a2-3)Gal(b1-4)GlcNAc", "procedure,_shortened": "as §1"}, "[34]": {"molecular_target": "Neu5Gc(a2-3)Gal(b1-4)GlcNAc(b1-3)Gal(b1-4)GlcNAc(b1-2)Man(a1-3)[Neu5Gc(a2-3)Gal(b1-4)GlcNAc(b1-3)Gal(b1-4)GlcNAc(b1-2)Man(a1-6)]Man(b1-4)GlcNAc(b1-4)GlcNAc", "procedure,_shortened": "as §1"}, "[35]": {"molecular_target": "Neu5Gc(a2-3)Gal(b1-4)[Fuc(a1-3)]GlcNAc", "procedure,_shortened": "as §1"}, "[36]": {"molecular_target": "Neu5Gc(a2-6)Gal(b1-4)GlcNAc", "procedure,_shortened": "as §1"}, "Neu5Gc(a2-6)GalNAc": {"molecular_target": "Neu5Gc(a2-6)GalNAc", "procedure,_shortened": "as §1"}, "[37]": {"molecular_target": "Neu5Gc(a2-8)Neu5Ac(a2-3)Gal(b1-4)GlcNAc", "procedure,_shortened": "as §1"}, "[38]": {"molecular_target": "Neu5Gc(a2-8)Neu5Gc(a2-3)Gal(b1-4)GlcNAc", "procedure,_shortened": "as §1"}, "[39]": {"molecular_target": "Neu5Gc(a2-8)Neu5Gc(a2-3)Gal(b1-4)GlcNAc(b1-3)Gal(b1-4)GlcNAc", "procedure,_shortened": "as §1"}, "[40]": {"molecular_target": "Neu5Gc(a2-8)Neu5Gc(a2-6)Gal(b1-4)GlcNAc", "procedure,_shortened": "as §1"}},
  "note": "The other results are listed elsewhere or left out.",
  "data": [
    {"binder": "Mermaid3 (Stilbonema majum) (protein) MGSSHHHHHHSSGLVPRGSHMAASGWLRSPQGTVVKLYRRSLSWSKADEFCKDVDGRLVVDRTADMHLFLIKNVLKEKKSRVWVGLRRTASHSRTWIWSDGTRQNEGDLDANLWLRDEPNDAAGEEECALFMYSPWEKAWGLNDYLCRGGCRNYQFICEKWIR", "values": [
      {"measurement": "glycan array binding signal (z-score)", "setting": "[1]", "value": -0.284},
      {"measurement": "glycan array binding signal (z-score)", "setting": "[2]", "value": 0.359},
      {"measurement": "glycan array binding signal (z-score)", "setting": "[3]", "value": -0.34},
      {"measurement": "glycan array binding signal (z-score)", "setting": "[4]", "value": -0.198},
      {"measurement": "glycan array binding signal (z-score)", "setting": "[5]", "value": 0.016},
      {"measurement": "glycan array binding signal (z-score)", "setting": "[6]", "value": -0.45},
      {"measurement": "glycan array binding signal (z-score)", "setting": "[7]", "value": 0.978},
      {"measurement": "glycan array binding signal (z-score)", "setting": "[8]", "value": -0.578},
      {"measurement": "glycan array binding signal (z-score)", "setting": "[9]", "value": -0.712},
      {"measurement": "glycan array binding signal (z-score)", "setting": "[10]", "value": -0.732},
      {"measurement": "glycan array binding signal (z-score)", "setting": "Neu5Ac(a2-6)GalNAc", "value": -0.725},
      {"measurement": "glycan array binding signal (z-score)", "setting": "[11]", "value": -0.594},
      {"measurement": "glycan array binding signal (z-score)", "setting": "[12]", "value": -0.473},
      {"measurement": "glycan array binding signal (z-score)", "setting": "[13]", "value": -0.709},
      {"measurement": "glycan array binding signal (z-score)", "setting": "[14]", "value": 0.677},
      {"measurement": "glycan array binding signal (z-score)", "setting": "Neu5Ac(a2-8)Neu5Ac", "value": -0.57},
      {"measurement": "glycan array binding signal (z-score)", "setting": "[15]", "value": -0.831},
      {"measurement": "glycan array binding signal (z-score)", "setting": "[16]", "value": 2.95},
      {"measurement": "glycan array binding signal (z-score)", "setting": "[17]", "value": -0.872},
      {"measurement": "glycan array binding signal (z-score)", "setting": "[18]", "value": -0.414},
      {"measurement": "glycan array binding signal (z-score)", "setting": "[19]", "value": -0.231},
      {"measurement": "glycan array binding signal (z-score)", "setting": "[20]", "value": -0.629},
      {"measurement": "glycan array binding signal (z-score)", "setting": "[21]", "value": -0.478},
      {"measurement": "glycan array binding signal (z-score)", "setting": "[22]", "value": -0.616},
      {"measurement": "glycan array binding signal (z-score)", "setting": "[23]", "value": -0.283},
      {"measurement": "glycan array binding signal (z-score)", "setting": "[24]", "value": -0.579},
      {"measurement": "glycan array binding signal (z-score)", "setting": "[25]", "value": -0.231},
      {"measurement": "glycan array binding signal (z-score)", "setting": "[26]", "value": -0.607},
      {"measurement": "glycan array binding signal (z-score)", "setting": "[27]", "value": -0.658},
      {"measurement": "glycan array binding signal (z-score)", "setting": "Neu5Ac(b2-6)GalNAc", "value": -0.572},
      {"measurement": "glycan array binding signal (z-score)", "setting": "[28]", "value": -0.518},
      {"measurement": "glycan array binding signal (z-score)", "setting": "[29]", "value": -0.2},
      {"measurement": "glycan array binding signal (z-score)", "setting": "[30]", "value": -0.153},
      {"measurement": "glycan array binding signal (z-score)", "setting": "[31]", "value": -0.146},
      {"measurement": "glycan array binding signal (z-score)", "setting": "[32]", "value": 0.423},
      {"measurement": "glycan array binding signal (z-score)", "setting": "Neu5Gc(a2-3)Gal(b1-4)Glc", "value": 1.91},
      {"measurement": "glycan array binding signal (z-score)", "setting": "[33]", "value": -0.313},
      {"measurement": "glycan array binding signal (z-score)", "setting": "[34]", "value": -0.745},
      {"measurement": "glycan array binding signal (z-score)", "setting": "[35]", "value": 2.08},
      {"measurement": "glycan array binding signal (z-score)", "setting": "[36]", "value": 0.94},
      {"measurement": "glycan array binding signal (z-score)", "setting": "Neu5Gc(a2-6)GalNAc", "value": 0.785},
      {"measurement": "glycan array binding signal (z-score)", "setting": "[37]", "value": -0.587},
      {"measurement": "glycan array binding signal (z-score)", "setting": "[38]", "value": -0.787},
      {"measurement": "glycan array binding signal (z-score)", "setting": "[39]", "value": -0.82},
      {"measurement": "glycan array binding signal (z-score)", "setting": "[40]", "value": -0.516}
    ]}
  ]
}
